Biological target: human CB2 receptor (hCB2) (Homo sapiens, UniProt P34972)
Experiment: cell-based
Assay type: cell-based
Conditions: agonist or inverse agonist at hCB2

human CB2 receptor (hCB2), sequence (P34972 whole entry): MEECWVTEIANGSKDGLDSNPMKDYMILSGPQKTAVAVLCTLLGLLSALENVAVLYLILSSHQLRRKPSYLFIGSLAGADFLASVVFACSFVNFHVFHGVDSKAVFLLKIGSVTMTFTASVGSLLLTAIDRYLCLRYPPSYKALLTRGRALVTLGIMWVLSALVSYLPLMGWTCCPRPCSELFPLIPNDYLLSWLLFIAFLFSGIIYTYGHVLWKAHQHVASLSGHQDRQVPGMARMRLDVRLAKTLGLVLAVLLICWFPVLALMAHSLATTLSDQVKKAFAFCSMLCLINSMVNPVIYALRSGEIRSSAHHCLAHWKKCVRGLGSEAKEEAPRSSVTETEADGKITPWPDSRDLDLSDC

Compound	+/− HCB2
CNC(=O)[C@@H](NC(=O)c1nc(CCCN2CCCC2)n2c1CN(C)CC2)C(C)(C)C [Compound 308, (S)-N-(3,3-dimethyl-1-(methylamino)-1-oxobutan-2-yl)-7-methyl-3-(3-(pyrrolidin-1-yl)propyl)-5,6,7,8-tetrahydroimidazo[1,5-a]pyrazine-1-carboxamide]	+
CNC(=O)[C@@H](NC(=O)c1nc(-c2cccc(F)c2)n2c1CN(C)CCC2)C(C)(C)C [Compound 345, (S)-N-(3,3-dimethyl-1-(methylamino)-1-oxobutan-2-yl)-3-(3-fluorophenyl)-8-methyl-6,7,8,9-tetrahydro-5H-imidazo[1,5-a][1,4]diazepine-1-carboxamide]	+
CCCC/C=C/c1nc(C(=O)N[C@H](C(=O)NC)C(C)(C)C)c2n1CCCN(C)C2 [Compound 400, (S,E)-N-(3,3-dimethyl-1-(methylamino)-1-oxobutan-2-yl)-3-(hex-1-enyl)-8-methyl-6,7,8,9-tetrahydro-5H-imidazo[1,5-a][1,4]diazepine-1-carboxamide]	+
CN1CCCn2c(-c3cc(F)c(F)cc3F)nc(C(=O)N[C@@H](CC(C)(C)C)C(N)=O)c2C1 [Compound 590, (S)-N-(1-amino-4,4-dimethyl-1-oxopentan-2-yl)-8-methyl-3-(2,4,5-trifluorophenyl)-6,7,8,9-tetrahydro-5H-imidazo[1,5-a][1,4]diazepine-1-carboxamide]	+
CCC(=O)N1CCn2c(-c3ccccc3)nc(C(=O)N[C@H](C(=O)NC)C(C)(C)C)c2C1 [Compound 189, (S)-N-(3,3-dimethyl-1-(methylamino)-1-oxobutan-2-yl)-3-phenyl-7-propionyl-5,6,7,8-tetrahydroimidazo[1,5-a]pyrazine-1-carboxamide]	+
CN1CCCn2c(-c3ccc(F)cc3F)nc(C(=O)N[C@H](C(N)=O)C(C)(C)C)c2C1 [Compound 578, (S)-N-(1-amino-3,3-dimethyl-1-oxobutan-2-yl)-3-(2,4-difluorophenyl)-8-methyl-6,7,8,9-tetrahydro-5H-imidazo[1,5-a][1,4]diazepine-1-carboxamide]	+
CNC(=O)C(NC(=O)c1nc(-c2ccccc2)n2c1CN(C)CCC2)C(C)(C)F (stereo not shown) [Compound 605, N-(3-fluoro-3-methyl-1-(methylamino)-1-oxobutan-2-yl)-8-methyl-3-phenyl-6,7,8,9-tetrahydro-5H-imidazo[1,5-a][1,4]diazepine-1-carboxamide]	+

Reference: patent publication US7517874B2 (priority 2007, dated 2009)
